Drawing on PubChem BioAssay AID1346428 (National Center for Advancing Translational Sciences (NCATS), 2018), this text covers activation for 86 molecules.

The whole screen tested about 48,000 compounds, of which about 1,200 (2.5%) were called active. Another 2% or so got no clear call; they are omitted.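 Rule for the calls: active = activation of at least 60% and not above a set upper limit (about 1 call in 100 departs from these limits); inconclusive = activation of 40% to 60%, or above that upper limit; inactive = activation under 40%.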 This is one part of the list.

UniProt O75388, sequence (O75388 whole entry, looked up, the tested form may be a part): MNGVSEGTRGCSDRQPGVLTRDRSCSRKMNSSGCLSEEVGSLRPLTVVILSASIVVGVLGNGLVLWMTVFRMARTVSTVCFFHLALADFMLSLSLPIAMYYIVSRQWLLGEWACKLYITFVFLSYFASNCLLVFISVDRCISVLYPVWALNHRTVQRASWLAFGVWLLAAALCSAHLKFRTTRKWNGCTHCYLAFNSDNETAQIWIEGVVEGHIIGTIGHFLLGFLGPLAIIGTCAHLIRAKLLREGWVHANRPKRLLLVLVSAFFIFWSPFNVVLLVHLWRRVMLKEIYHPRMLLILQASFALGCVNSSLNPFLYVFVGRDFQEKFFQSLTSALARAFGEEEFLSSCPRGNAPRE

For the experiment, the target named is Probable G-protein coupled receptor 32 (Homo sapiens) (UniProt O75388). Kind of experiment: qHTS for Agonists of Human Resolvin D1 Receptor DRV1. Note: 0% is about no effect. The settings on record: CHO-K1 GPR32 beta-arrestin PathHunter luminescence, 90 min; at 76.9 µM; hits give high values; zero percent set by DMSO-only wells. The gist of the method:
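Agonism was scored as beta-arrestin recruitment to ProLink-fused GPR32 in stably transfected CHO-K1 cells, giving a chemiluminescent beta-Gal signal; compounds were incubated 90 min at 37 °C.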
Take `Cc1ccc(-c2nnc(Nc3cccc(O)c3)c3ccccc23)cc1S(=O)(=O)NCC1CCCO1` (stereo unspecified): the activation is inactive: -4.38%. In the case of `CC1CCN(S(=O)(=O)c2ccc3c(c2)c(=O)c(C(=O)NC(C)c2ccccc2)cn3C)CC1` (stereo unspecified), the activation was inactive: -20.4%.

`CN(CC(=O)Nc1ccccc1F)S(=O)(=O)c1ccc2c(c1)c(=O)n(C)c(=O)n2C`: the activation is inactive: 15.3%.

`COc1ccc(CCC(=O)NCc2nc3cccnc3n2Cc2ccc(F)cc2)cc1`: the activation is inactive: -13.8%.

`O=C(NCCc1ccccc1)c1ccc2c(c1)N(Cc1ccccc1)C(=O)c1ccccc1S2(=O)=O`: the activation is active: 92.4%. With `COc1ccc(CNC(=O)c2cc(=O)[nH]c3ccc(S(=O)(=O)N4CCCC4)cc23)c(OC)c1`, the activation was inactive: -4.53%.

Consider `O=C(NCCc1ccccc1)C1CCN(Cc2cc3ccccc3n2Cc2cccc(Cl)c2)CC1`, for which the activation was inactive: -67.8%. For `CC(=O)c1cccc(NC(=O)C(CC(C)C)NS(=O)(=O)c2ccc3c(c2)CCN3C(C)=O)c1` (stereo unspecified) the value was inactive: -4.88%.

Take `CCOC(=O)CN(Cc1ccccc1)C(C(=O)NC1CCCCC1)c1ccc(OC)cc1` (stereo unspecified): the activation is inactive: -14.6%.

For the molecule `COc1cccc(Nc2sc(C(=O)c3ccc(Cl)cc3)c(N)c2C(=O)NCc2ccc(C)cc2)c1`, the activation is inactive: -7.39%. `Cc1cc(NC(=O)CSc2nc(-c3ccccc3C)nc3c2c(=O)n(C)c(=O)n3C)no1`: the activation was inactive: -10.2%. Consider `CCOc1cc(C(=O)Nc2cccc3cccnc23)cc(OCC)c1OCC`, for which the activation was inactive: -13.6%. To `COc1ccc(Cl)cc1NC(=O)c1ccc2c(c1)CCN2S(C)(=O)=O` belongs inactive: 4.74%; to `CCN(C(=O)Cn1c(=O)oc2cc(S(=O)(=O)N3CCCCCC3)ccc21)c1cccc(C)c1`, inactive: -19.6%. To `Cc1cccc(OC(=O)c2snnc2C)c1` belongs inactive: 8.8%; to `Cc1cccc(C)c1Nc1c(-c2ccccn2)nc2ccc(Cl)cn12`, inactive: -22.4%; to `Cn1cc(S(=O)(=O)N2CCCCCC2)cc1C(=O)NCc1ccc(F)cc1`, inactive: 27.4%. Regarding `O=C(NCc1ccccc1)NC1COc2ccccc2C1` (stereo unspecified), the activation is inactive: -13.5%. To `O=C(NCCc1ccc(Cl)cc1)c1ccc(Nc2nc3ccccc3n3nnnc23)cc1` belongs inactive: 2.91%; to `CCOc1ccccc1NC(=O)CSc1ncc2c(n1)-c1ccccc1N(CC)S2(=O)=O`, inactive: -16.2%; to `COc1ccc(CNCc2ccc(C(=O)O)s2)cc1`, inactive: -13.5%. Regarding `CCOc1ccc(NC(=O)c2sc(-n3nc(C)c(CCC(C)C)c3C)nc2C)cc1`, the activation was inactive: -1.78%. Consider `COc1ccc(NC(=O)c2nc(SCc3ccc(F)cc3)ncc2Cl)cc1`, for which the activation is inactive: -33.6%. Take `Cc1cccc(NC(=O)C(=O)NCCCN2CCOCC2)c1`: the activation was inactive: 14%. On to `CCOc1ccccc1CNC(=O)c1ccc2nc(N3CCC(C)CC3)sc2c1`, for which the activation is inactive: 5.45%.

On to `Cc1ccccc1Nc1c(-c2ccc(N3CCOCC3)cc2)nc2cccc(C)n12`, for which the activation is inactive: -14.8%. As for `CCC(C)Nc1nc2c(c(=O)[nH]c(=O)n2C)n1Cc1ccc(F)cc1` (stereo unspecified), the activation is inactive: -2.79%. `CC1=C(c2ccc(C)cc2)S(=O)(=O)NC1=NCc1ccccc1Cl`: the activation was inactive: -8.17%. For `OCC(O)CN1CCN(c2ccccc2)CC1` (stereo unspecified) the value was inactive: 1.61%.

For `COC(=O)c1cc2sccc2n1Cc1nc(-c2cccc(Cl)c2)oc1C`, the activation is inactive: -3.37%.

Take `C=Cc1ccc(Cn2c(C(=O)O)c(CNCCc3ccco3)c3ccc(C)cc32)cc1`: the activation is active: 88.5%. As for `CCCCOC(=O)CSc1ncnc2sc3c(c12)CCC(C)C3` (stereo unspecified), the activation was inactive: -0.513%.

For `COc1cc(NC(=O)CN2CCCN(Cc3cccc(F)c3)S2(=O)=O)cc(OC)c1`, the activation is inactive: -2.97%.

For `CCOC(=O)c1c(C)oc2nc(C)nc(NCCc3ccc(C)cc3)c12`, the activation is inactive: -2.32%. For `CCCc1cc(N2CCN(c3ccccc3F)CC2)n2cnnc2n1`, the activation is inactive: 31.3%.

Turning to `COc1ccccc1N1CCN(CCN2C(=O)CC3(CCCC3)CC2=O)CC1`, the activation was inactive: 6.97%. As for `Cc1cccc(C(=O)Nc2ccc(N3CC=C(c4ccccc4C)CC3)c(C(=O)O)c2)c1`, the activation was inactive: 10.5%.

Turning to `Cc1ccc(CN2C(=O)c3ccccc3Sc3ccc(C(=O)N4CCOCC4)cc32)cc1`, the activation is inactive: -16%. To `CC1=C(C(=O)N2CCCCC2)C(c2ccc(Cl)cc2)n2c(nc3ccccc32)N1` (stereo unspecified) belongs inactive: -13.1%. For `CCCNC(=O)c1cc2n(n1)CCCN(Cc1ccc(C)cc1)C2=O` the value was inactive: 2.64%. In the case of `Cc1ccc(NC(=O)c2oc3ccc(S(=O)(=O)N(C)C4CCCCC4)cc3c2C)c(C)c1`, the activation is inactive: -6.77%.

Take `COc1ccc(-c2nc(C)c(CCNC(=O)c3ccc(C(F)(F)F)cc3)s2)cc1OC`: the activation is inactive: 0.68%. For `CCOc1ccc(NC(=O)CSc2oc(-c3ccco3)nc2S(=O)(=O)c2ccccc2)cc1` the value was inactive: -14.8%. Turning to `CC(C)(Oc1ccc(Cl)cc1)C(=O)OCCCOC(=O)C(C)(C)Oc1ccc(Cl)cc1`, the activation was inactive: -12.3%. As to `COc1ccc(CNC(=O)CCCc2nnc3n(C(C)C)c(=O)c4sccc4n23)cc1`, the activation is inactive: -3.06%. Turning to `O=S(=O)(c1ccccc1)c1nc(-c2ccc(F)cc2)oc1NCc1ccccc1`, the activation was inactive: -23.2%. For `O=C(COc1ccccc1F)Nc1ccc2nc(SCC(=O)N3CCOCC3)sc2c1` the value was inactive: 17.4%; for `CCOc1ccc(CNC(=O)CSc2c3c(nc4cc(Cl)ccc24)CCCC3)cc1`, inactive: -17.7%. As to `CCOC(=O)c1cccc(NC(=O)CSc2ncc3c(n2)-c2ccc(Cl)cc2N(Cc2ccccc2)S3(=O)=O)c1`, the activation is inactive: 7.98%. `COc1ccccc1CNC(=O)CCS(=O)(=O)c1ccc2c(c1)oc(=O)n2C`: the activation was inactive: 3.83%. For `Cc1c(-c2nsc(NC(=O)c3cccs3)n2)nnn1-c1ccc(F)cc1` the value was inactive: -4.17%. For `Cc1ccc(S(=O)(=O)Nc2cc(Cl)c3oc4c(c3c2)CCCC4)cc1` the value was inactive: 34%; for `O=C(NCCc1ccccc1)c1ccc2c(c1)nc1n2CCOC1`, inactive: -6.94%; for `CCOC(=O)c1oc2c(c1C)-c1nn(Cc3cccc(Cl)c3)cc1CC2`, inactive: -8.63%. To `CCN(CC)S(=O)(=O)c1ccc2c(c1)N(CC(=O)Nc1c(C)cccc1C)C(=O)C1CCCN21` (stereo unspecified) belongs inactive: -23.5%; to `Cc1c(C)n(Cc2ccccc2)c2ccc(C(=O)N3CCN(c4ccccc4)CC3)cc12`, inactive: -33.2%; to `COc1ccc(C(=O)NC(c2ccccc2Cl)c2cc(Cl)c3cccnc3c2O)cc1` (stereo unspecified), inactive: -54.1%. Turning to `CN1Cc2sccc2C(c2ccc(O)c(O)c2)C1` (stereo unspecified), the activation was inactive: -13.3%. For `CC(C)Oc1ccc(C(=O)N(Cc2ccc(N(C)C)cc2)Cc2ccco2)cc1` the value was inactive: -15.1%.

With `Cc1ccc(OCC(=O)NCC(=O)OCc2cc(=O)n3nc(C(C)C)sc3n2)cc1`, the activation was inactive: 6.73%.

Consider `Cc1cc(O)c(C(c2ccccc2)N2CCN(c3ccc(F)cc3)CC2)c(=O)n1Cc1ccco1` (stereo unspecified), for which the activation is inactive: -15.5%. For `O=C(c1ccco1)N(Cc1cccs1)c1ccc(F)cc1` the value was inactive: 10.5%; for `Cc1ccc(-n2c(CCC(=O)O)ccc2-c2cccs2)cc1Cl`, inactive: -30.4%. Regarding `CC(C)c1nc2ccc(C(=O)NCc3ccccc3Br)cc2o1`, the activation is inactive: -17.8%. For `CCc1ccccc1NC(=O)c1cc2nc(-c3ccc(Br)cc3)cc(C(F)(F)F)n2n1` the value was inactive: -19.5%. As for `Cc1cccc(OCc2cc(=O)n3c4c(sc3n2)CCCC4)c1C`, the activation was inactive: -9.81%. With `O=C(NCC1CCN(Cc2cccc(Cl)c2)CC1)Nc1ccc(F)c(Cl)c1`, the activation was inactive: 10.5%. To `COc1cccc(CNC(=O)c2ccc(-n3c(C)cc4c3CCCC4)cc2)c1` belongs inactive: -4.85%; to `Cc1noc(-c2ccccc2OCC(=O)Nc2ccccc2[N+](=O)[O-])n1`, inactive: 47.5%. To `CCOc1ccccc1N1CC(c2nc3ccccc3n2CCCOc2ccc(OC)cc2)CC1=O` (stereo unspecified) belongs inactive: 1.21%; to `COc1ccc(CNC(=O)c2sc3nc[nH]c(=O)c3c2C)cc1`, inactive: -5.74%. For `CC(C)OCCCN1C(=O)c2[nH]nc(-c3ccccc3O)c2C1c1ccccc1F` (stereo unspecified), the activation is inactive: -1.9%. To `CCN1CCSc2ccc(C(=O)NCc3cccc(Br)c3)cc21` belongs inactive: -41%. To `CCOc1ccc(NC(=O)CSc2c3c(nc4ccccc24)CCCC3)cc1` belongs inactive: -12%; to `CCCCOc1ccccc1C(=O)N(Cc1sccc1C)C1CCS(=O)(=O)C1` (stereo unspecified), inactive: -26.9%.

For the molecule `COc1ccc2cc(CNc3ccc(C)cc3)c(=O)n(CC(=O)Nc3ccc(C)cc3Cl)c2c1`, the activation was inactive: -39.6%. Regarding `Cc1ccc(-c2cn3nc(N4CCCC(C(=O)NCc5ccc(F)cc5)C4)sc3n2)cc1` (stereo unspecified), the activation was inactive: -16.2%. For `CC(C)(C)c1ccc(C(=O)N2CCCC(c3nc4c(nnn4Cc4cccc(F)c4)c(=O)[nH]3)C2)cc1` (stereo unspecified) the value was inactive: -2.29%; for `COc1ccc(N2CCN(Cc3nc4c(c(=O)n(C)c(=O)n4C)n3C(C)C)CC2)cc1`, inactive: 10.9%; for `Cc1cc(C)cc(NC(=O)Cn2c(=O)n(-c3ccc(C)c(C)c3)c(=O)c3oc4ccccc4c32)c1`, inactive: -20.7%. For the molecule `COC(=O)c1ccc(NC(=O)CCn2cnnn2)c(C)c1`, the activation was inactive: -4.11%. For `Cc1ccc2nc(CN3CCN(S(=O)(=O)c4ccc(C(C)C)cc4)CC3)oc2c1` the value was inactive: 3.99%; for `Cc1ccc2oc(-c3cccc(NC(=O)c4cccc5c(Cl)cccc45)c3)nc2c1`, inactive: 5.51%; for `CCCCn1c(CCCNC(=O)c2cccc(C)c2)nc2ccccc21`, inactive: 37%. For `Cc1nc2cc(-c3cccc(F)c3)nn2c(C)c1CCC(=O)Nc1ccccc1C(N)=O`, the activation is inactive: -1.46%.

With `COc1cc(N)c(Cl)cc1C(=O)NC1CCN(CCCOc2ccc(F)cc2)CC1OC` (stereo unspecified), the activation was active: 63.8%.
